Consider 34 variants from the RNAGym collection of RNA variant scans (doi:10.1093/nar/gkz1192).

Read counts are not given, so values of variants with three or more changes are uncertain.

Sequences and labels used below:
B1: CPEB3 Ribozyme (parent)
chain: UAACAGGGGGCCACAGCAGAAGCGUUCACGUCGCAGCCCCUGUCAGAUUCUGGUGAAUCUGCGAAUUCUGCUGUAUAUCUC

Variants of B1 are the subject of this series. Put plainly: self-cleavage, relative activity (ratio to wild type); higher = more cleavage; in vitro, sequencing. The method, boiled down:
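Barcoded CPEB3 ribozyme mutants, produced by rounds of error-prone PCR, self-cleaved while being transcribed with T7 RNA polymerase for 5 hours at 37°C and during a subsequent 15 min DNase I step before EDTA was added. Sequencing of template-switched cDNA on Illumina gave cleaved and total reads, and DNA sequencing assigned barcodes to variants. Each variant's relative activity is its cleaved/total read fraction divided by the unmutated ribozyme's fraction, averaged across three batches. A variant needed a minimum of 5 reads.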
Consider UAACAGGGGGCCACAGCAGAAGCGUACACGUCGCAGCCCCUGUCAGAUUCUGGUGAAUCUGCGAACUCUGCUGUAUGUCUC, for which the self-cleavage was 0.16. In the case of UAACAGGGGGCCACAGCAGAAGCGUCCGGGUCGCAGCCCCUGUCAGACUCUGGUGAAUCUGCGAAUUCUGCUGUAUAUCUC it was 0.18. Next, UAACAGGGGGCCACAGCAGAAGCGUACACGUCGCAGCCCCUGCCAGAUUCUGGUGAAUCUGCGAAUUCCGCGGUAUAUCUC: 0.16; UAACAGGGGGCCACAGCAGAAGCGUCCACGUCGCGGCCCCUGUCAGAUUCUGGUGAAUCUGCGAAUACUGCAGUAUAUCUA: 0.68; UAACAGGGGGCCACAGCAGAAGCGUCCCCGUCGCAGCCCCUGUCAGAUUCUGGUGAAUCUGCGAAUUCUGUUGUGUAUCUC: 0.16. Next, UAACAGGGGGCCACAGCAGAAGCGUACACGUCGCAGCCCCUGUCAGAUUCUGGUGAAUCAGCGAAUUCUGCUGUACACCUC: 0.41. For the variant UAACAGGGGGCCACAGCAGAAGCGUACACGUCGCAGCCCCUGUCAGAUCCUGGAGAAUCUGCGAAUUCUGCUGCAUAUCUC, the self-cleavage amounted to 0.6. In the case of UAACAGGGGGCCACAGCAGAAGCGUACACGUCGCAGCCCCUGUCAGACUCUGGUGAAUCUGCGAAUUCUGCUGCAUAUCUC it was 1.12; in that of UAACAGGGGGCCACAGCAGAAGCGUACACGUCGCAGCCCCUGUCAGACUCCGGUGAAUCUGCGGAUUCUGUUGUAUAUCUU, 0.13; in that of UAACAGGGGGCCACAGCAGAAGCGUACACGUCGCAGCCCCUGUCAGAUUCCGGUGAAUCUGCGAAUUCUGCUGUAUGUCUC, 0.94. In the case of UAACAGGGGGCCACAGCAGAAGCGUCCGCGCCGCAGCCCCUGUCAGAUUCUGGUGAAUCUGCGAAUUCUGCUGUAUAUCUC, the self-cleavage was determined as 0.22. In the case of UAACAGGGGGCCACAGCAGAAGCGUCCGCGUCGCAGCCCCUGUCGGAUUCUGGUGAAUCUGCGAAUUCUGCUGUAUUUCUC it was 0.07. With UAACAGGGGGCCACAGCAGAAGCGUCCGCGUCGCAGCCCCGGUCAGAUUCUGGUGAAUCUGCGUAUUCUGCUGUACUUCUC, the self-cleavage came out at 0.15.

In the case of UAACAGGGGGCCACAGCAGAAGCGUACACGUCGCAGCCCCUGUCAGAUCCUGGUGAAUCUGCGUAUUCUGCUGUAUAUCUC, the self-cleavage turned out to be 0.16. Next, UAACAGGGGGCCACAGCAGAAGCGUACACGUCGCAGCCCCUUUCAGAUCCUGGUGACUCUGCGAAUACUGCUGUAUAUCUC: 0.06. In the case of UAACAGGGGGCCACAGCAGAAGCGUCCGCGUCGCAGCCCCUGUCAGAUUCUGGUGAAUCUGCGAAUUCUGCCGUAUCUCUC it was 0.21; in that of UAACAGGGGGCCACAGCAGAAGCGUCCUCGUCGCAGCCCCUGUCAGAUUCUGGCGAAUCUGCGAAUUCUGCUGUAUGUCUC, 0.17; in that of UAACAGGGGGCCACAGCAGAAGCGUACACGCCGCAGCCCCUGUCAGAUUCUGGUGAAUCUGCGAAUCCUGCUGUAUAUCUC, 0.14. Next, UAACAGGGGGCCACAGCAGAAGCGUCCUCGUCGCAGCCCCUGUCAGAUUCUGGCGAAUCUGCGAAUUCUGUUGUAUAUCUC: 0.09; UAACAGGGGGCCACAGCAGAAGCGUCCACGUCGCGGCCCCUGCCAGAUUCUGGUGGAUCUGCGAAUUCUGCUGUAUAUCUC: 0.91.

For UAACAGGGGGCCACAGCAGAAGCGUCCUCGUCGCAGCCCCUUUCAGAUUCUGGUGUAUCUGCGAAUUCUGCUGUAUAUCUC, the self-cleavage is 0.21.

In the case of UAACAGGGGGCCACAGCAGAAGCGUACACGUCGCAGCCCCUGUCAGAUUCUGGUGAAUCUGCGAAUCCUGCUGUGUGUCUC, the self-cleavage was 0.16. Next, UAACAGGGGGCCACAGCAGAAGCGUCCACGUCGCGGCCCCUGUCAGAUUCUGGUGAAUCUGCGAAUUCUGCUGUAUACCUC: 1.16; UAACAGGGGGCCACAGCAGAAGCGUACACGUCGCAGCCCCUGUCAGAUUCUGGUGAAUCUGCGAAUUCAGCUGUUUAUCUC: 0.4. In the case of UAACAGGGGGCCACAGCAGAAGCGUCCACGUCGCCGCCCCUGUCAGGUUCUGGUGAAUCUGCGAAUUCUGCUGUAUAUCUC it was 0.47; in that of UAACAGGGGGCCACAGCAGAAGCGUACACGUCGCAGCCCCUGUCAGAUUCUGGUGAAUCCGCGAAUUCUGCCGUAUACCUC, 0.15. Next, UAACAGGGGGCCACAGCAGAAGCGUACACGUCGCAGCCCCUGACGGAUUCUGGUGAAUCUGCGGAUUAUGCUGUAUAUCCC: 0.52; UAACAGGGGGCCACAGCAGAAGCGUACACGUCGCAGCCCCAGUCAGAUUCUGGUGAAUCUGCGAAUCCUGCUGUAUAUCUC: 0.14.

As to UAACAGGGGGCCACAGCAGAAGCGUACACGACGCAGCCCCUGUCAGAUUCUGGUGAAUCUGCGAAUUCUGCUGUAUAUCAC, the self-cleavage came out at 0.6. In the case of UAACAGGGGGCCACAGCAGAAGCGUACACGUCGCAGCCCCUGUCAGAUUCUGGUGAAUCUGCGAAUUCAGCUGUACAUCUC it was 0.58; in that of UAACAGGGGGCCACAGCAGAAGCGUACACGUCGCAGCCCCUGACAGAUUCUGGUGAAUCUGCGAAUUCUCCUGUAUAUCUC, 0.11; in that of UAACAGGGGGCCACAGCAGAAGCGUCCGCGUCGCGGCCCCUGUCAGAUUCUGGUGAAUCUGCGAAUUCUGCUGUAUAUCUC, 0.54. In the case of UAACAGGGGGCCACAGCAGAAGCGUCCACGUCGCGGCCCCUGACGGAUUCUGGAGAACCUGCGAAUUCUGCUGUAUAUCUC it was 0.18; in that of UAACAGGGGGCCACAGCAGAAGCGUCCACGUCGCGGCCCCCGUCAGGUUCUGGUGAAUCUACGAAUUCUGCUGUAUAUCUC, 0.31.
